Experimental data published in the RNAGym collection of RNA variant scans (doi:10.1093/nar/gkz1192).
Read counts are not given, so values of variants with three or more changes are uncertain.

B1: CPEB3 Ribozyme (parent)
chain: UAACAGGGGGCCACAGCAGAAGCGUUCACGUCGCAGCCCCUGUCAGAUUCUGGUGAAUCUGCGAAUUCUGCUGUAUAUCUC

Variants of: B1
Assay: self-cleavage, relative activity (ratio to wild type); higher = more cleavage; in vitro, sequencing
In short: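 After error-prone PCR and barcoding, CPEB3 ribozyme mutant libraries were transcribed with T7 RNA polymerase at 37°C for 5 hours, then given 15 min with DNase I before an EDTA stop, and they cleaved during both steps. Reverse transcription with template switching preceded Illumina sequencing. Relative activity divides a variant's cleaved/total read fraction by the unmutated ribozyme's. At least 5 reads were required per variant, and three batches were averaged.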
A18G A47G A64U showed a self-cleavage of 0.11. A18G U69C U72C U80A gave a self-cleavage of 1.22. For A18G U26A U54C U58A, the self-cleavage was 0.14. Variant A18U A45G G61U has a self-cleavage of 0.18. Variant A18G A28G A35G U76C has a self-cleavage of 0.6. For A18U A28G U31C U41A U78C C79U, the self-cleavage was 0.04. With A18U G30A A56G the self-cleavage was 0.19. A18U U25C U41C U72A showed a self-cleavage of 0.14. A18G G30A G46C A57U G63A showed a self-cleavage of 0.06. For A18G G33U U43A U72G U80A, the self-cleavage was 0.03. Variant A18G U31A A35G U67C U78C has a self-cleavage of 0.42. Variant A18G U25A U69C has a self-cleavage of 0.18. With A18G U31A A35C A45U U69A U72C U78C the self-cleavage was 0.05. A18U A35G U69C G73A A75G showed a self-cleavage of 1.11. With A18U A20G U41C G63U the self-cleavage was 0.42. For A18U G24A U31A U49C, the self-cleavage was 0.05. Work on A18U U25A A28U C59A U78C yielded a self-cleavage of 0.07. In the case of A18U U31C U41C U60C, the self-cleavage is reported as 0.3. Work on A18G U26A U60A yielded a self-cleavage of 0.2. A18G G22A U69C U72A showed a self-cleavage of 0.07. A18G U31A U43C gave a self-cleavage of 0.3. In the case of A18G U26C A28G, the self-cleavage is reported as 0.16. In the case of A18G A21G A28G U41C, the self-cleavage is reported as 0.4. In the case of A18G A75G A77G, the self-cleavage is reported as 0.42. With A18U C37U U51C G52A A64C U72A A77U the self-cleavage was 0.06. In the case of A18G A56U U60C A64G U80C, the self-cleavage is reported as 0.06. For A18G U25C U26A U72C, the self-cleavage was 0.12. Variant A18G U26C U66C has a self-cleavage of 0.3. A18G U31A U74C gave a self-cleavage of 0.66. A18G G22U U66C gave a self-cleavage of 0.16. In the case of A18U C34G A35G G61C U72C, the self-cleavage is reported as 0.09. Work on A18G U26C A64G yielded a self-cleavage of 0.13. In the case of A18U A64U U80A, the self-cleavage is reported as 0.17. Work on A18U C23U A47G U49A A56G yielded a self-cleavage of 0.18. With A18G C39U U43G A56U U58A A65C the self-cleavage was 0.06. Variant A18U U26C A64G has a self-cleavage of 0.13. A18U G24U G33A U72A C79A gave a self-cleavage of 0.05. In the case of A18G U41C A47G G55U C62A, the self-cleavage is reported as 0.2. In the case of A18G U49A A77U, the self-cleavage is reported as 0.66. A18U A45U U48C U51C showed a self-cleavage of 0.57. In the case of A18G U25C U54C, the self-cleavage is reported as 0.17. A18U A47G U48C C62U gave a self-cleavage of 0.2. A18G U41C U72A U80C gave a self-cleavage of 0.31. Work on A18G A20U U31A U58C C62A yielded a self-cleavage of 0.08. Work on A18G C23U A65G U72C U78C yielded a self-cleavage of 0.04. Work on A18G A28U C29U U43C U49C A56U U80C yielded a self-cleavage of 0.07. A18G U25A U54A U80A gave a self-cleavage of 0.12. In the case of A18G U48C U51C U67C, the self-cleavage is reported as 0.18. Variant A18G U48A U67G has a self-cleavage of 0.18. Variant A18U G19U A35U G36A U43C has a self-cleavage of 0.08. In the case of A18G U48A A57U, the self-cleavage is reported as 0.91. A18U A21G C27G U58C U69A U74G A75U showed a self-cleavage of 0.03. A18G U49C A64U gave a self-cleavage of 0.16. A18G A35G A45C showed a self-cleavage of 0.37. A18G U26C G53U gave a self-cleavage of 0.35. For A18G U51A U69A G70A, the self-cleavage was 0.17. A18U U41G U49C A65G U66C showed a self-cleavage of 0.03. A18U A56G U67C U72C showed a self-cleavage of 0.14. In the case of A18G U60A U67C, the self-cleavage is reported as 0.15. In the case of A18G A21G U49C, the self-cleavage is reported as 0.22. With A18G A64G U76C the self-cleavage was 0.66. Work on A18G U25C U31C A45U yielded a self-cleavage of 0.17. In the case of A18U A45U U78C, the self-cleavage is reported as 0. In the case of A18U C39U U80C, the self-cleavage is reported as 0.37. Work on A18G A57G A75U yielded a self-cleavage of 0.6. Work on A18G U41A U43A yielded a self-cleavage of 0.12. Variant A18G A35G U72C U78C has a self-cleavage of 1.12. In the case of A18G U25G U51C, the self-cleavage is reported as 0.34. A18U C34U C40U U80C gave a self-cleavage of 0.22. With A18U C62U U69A the self-cleavage was 0.13. For A18U U26A A35U, the self-cleavage was 0.21. With A18U U26C C44G A75G U76A the self-cleavage was 0.16. A18U U25C A77G showed a self-cleavage of 0.07. In the case of A18G U49A U51A U80C, the self-cleavage is reported as 0.1. Work on A18U G33U U49A yielded a self-cleavage of 0.12. With A18G G24A U41G U49C A65G the self-cleavage was 0.19. Variant A18U G33A A47G A64G C68G has a self-cleavage of 0.13. Variant A18U A35U C38G has a self-cleavage of 0.07. In the case of A18G U51A A64G U72C A75U U76C, the self-cleavage is reported as 0.58. Work on A18U U25C A65C C68A yielded a self-cleavage of 0.17. A18G A21G U51A U78C showed a self-cleavage of 0.64. Variant A18G C40U U80A has a self-cleavage of 0.51. In the case of A18G C32U U41C A56U A75G, the self-cleavage is reported as 0.05. A18G A35G U48A gave a self-cleavage of 0.23. In the case of A18G U41A U78C, the self-cleavage is reported as 0.4. For A18G A35G C68U U80A, the self-cleavage was 1.16. For A18U A35U U60A, the self-cleavage was 0.2. In the case of A18U G19U A21G, the self-cleavage is reported as 0.35. Variant A18U C23U U48A U51C U54G A65G U72A has a self-cleavage of 0.04. Work on A18G U25C A28U A35G C40U C79U yielded a self-cleavage of 0.28. For A18U U41C U49A A75G U80C, the self-cleavage was 0.09. With A18U U43C U76C the self-cleavage was 0.45. With A18G G22C U49C A56G A57G U76A the self-cleavage was 0.21. Work on A18G U25C A57G A64U yielded a self-cleavage of 0.07. Work on A18G U60C U72C yielded a self-cleavage of 0.24. With A18G U26G U66C the self-cleavage was 0.19. Variant A18G U48C U51C has a self-cleavage of 0.24. In the case of A18G U41A C68U, the self-cleavage is reported as 0.18. A18G U25C A28G U49C A65G U69A showed a self-cleavage of 0. In the case of A18U U25C A57G U69C U72A, the self-cleavage is reported as 0.31. With A18G U31C A35U U67G the self-cleavage was 0.04. Variant A18U A28U U31C A35G U69A has a self-cleavage of 1.21. With A18U A28G A56G A65G U66C the self-cleavage was 0.04. A18G U41A A45G A57G A75G U78C showed a self-cleavage of 0.16. A18U A28G U31A U41C U43A U72A U80C gave a self-cleavage of 0.12. A18G C32U U72A gave a self-cleavage of 0.2. For A18G U26C C38A, the self-cleavage was 0.1. With A18G U41C U48C U78C the self-cleavage was 0.27. Work on A18G U69C U74C U78A yielded a self-cleavage of 1.26. A18G A45G U67C showed a self-cleavage of 0.17. With A18G U26C U54C the self-cleavage was 0.31. A18G U41G A64G gave a self-cleavage of 0.08. A18G C27A A35G gave a self-cleavage of 0. For A18G A45G U78C, the self-cleavage was 0.39. In the case of A18G C38A U41C U60G U76C, the self-cleavage is reported as 0.18. In the case of A18G U48A G61C G63A A64G U76A U80C, the self-cleavage is reported as 0.03. With A18U C34G A45U U48C the self-cleavage was 0.15. In the case of A18G A35G C59A U67C U72C, the self-cleavage is reported as 0.35. A18U U43C G73C U74A showed a self-cleavage of 0.13. A18G A35G A75G C79U showed a self-cleavage of 1.5. With A18U C23G A45U the self-cleavage was 0.23. Work on A18G A47G U67C U72A yielded a self-cleavage of 0.15. A18U C37U U41C A57G G63A gave a self-cleavage of 0.22. A18U U43G U76C gave a self-cleavage of 0.28. Variant A18G G22A A65G U69A U78G has a self-cleavage of 0.06. With A18G A21G A56G U74C the self-cleavage was 0.23. Variant A18G U25C U41C U60A has a self-cleavage of 0.58. For A18G C34U A35G U51A A56G, the self-cleavage was 0.09. Work on A18G A21G U25C A35G U67C U72C yielded a self-cleavage of 0.09. A18U A28G U41C showed a self-cleavage of 0.21. Variant A18U A21G A35U U49A U80C has a self-cleavage of 0.24. Variant A18U C68G U74C has a self-cleavage of 0.12. In the case of A18G A21G G30A G42A U66C U80A, the self-cleavage is reported as 0.12. A18G A47U A57G U69A U72C gave a self-cleavage of 0.1. A18U A20G G63A gave a self-cleavage of 0.31. With A18G A28G C68A the self-cleavage was 0.05. A18U A20U A21G A77G gave a self-cleavage of 0.16. Work on A18G U31A A47C U72C U78C yielded a self-cleavage of 0.36. Variant A18G C23U U26A U72A has a self-cleavage of 0.05. A18G C50A U72A gave a self-cleavage of 0.24. Variant A18U U25A U49A G53A has a self-cleavage of 0.06. A18G G22A U25C U51C showed a self-cleavage of 0.18. Variant A18U C34U A64U has a self-cleavage of 0.11. Variant A18G U31A A35U U43A A45C U66A has a self-cleavage of 0.17. A18U U31C U60C showed a self-cleavage of 0.15. Variant A18U U26C U69A A77U U78A has a self-cleavage of 0.59. A18U A45U U54C U60A U67C U80C showed a self-cleavage of 0.09. With A18U A21G U67A C68A the self-cleavage was 0.18. Variant A18U G22U C27U A47G U69A C79U has a self-cleavage of 0.14. For A18U U41C G61A U69C, the self-cleavage was 0.18. With A18G A35G U48A U49C A56G U58G the self-cleavage was 0.31. With A18U C34A A77U the self-cleavage was 0.09. A18G C62G U78C gave a self-cleavage of 0.28. A18G U58C U78C showed a self-cleavage of 0.11. A18U A45C A64U U67C showed a self-cleavage of 0.29. Variant A18U A28G U41C C50A U80C has a self-cleavage of 0.09. A18G G36A U43C G46U A56G A57G U58C gave a self-cleavage of 0.21. For A18G A56G U69C U78A U80C, the self-cleavage was 0.84. For A18G G24C U51A U78C, the self-cleavage was 0.21. A18G U26C A35U A47G U48A U49C U66C gave a self-cleavage of 0.05. A18G A21U U31C U49C showed a self-cleavage of 0.07. With A18G U26C U43G U58C the self-cleavage was 0.27. A18G C32U U41G A45U A64U gave a self-cleavage of 0.07. For A18G U25C C32U U80C, the self-cleavage was 0.1. For A18G U31A U69A, the self-cleavage was 0.18. In the case of A18G G42C U49C G52A A57G A65G, the self-cleavage is reported as 0.07. Variant A18U U25C U54C has a self-cleavage of 0.39.
